Data taken from PubChem BioAssay AID1240 (Sanford-Burnham Center for Chemical Genomics, 2008).
The campaign covered roughly 50,000 compounds. About 800 (1.6%) showed an effect of 50% or more. The list shows a part of the results.

Target: Bcl-2-like protein 10 (Homo sapiens) (UniProt Q9HD36)
Assay: TR3 peptide-Bcl-B binding displacers, biochemical primary FP assay, phenotype converters (AID 1240);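 note: 0% = Bcl-B with tracer peptide and DMSO and 100% = tracer peptide lacking Bcl-B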
Settings: GST-Bcl-B / FITC-TR3 peptide fluorescence polarization; stronger effect = higher value; compound at 3.75 mg/L

UniProt Q9HD36, sequence (Q9HD36 whole entry, looked up): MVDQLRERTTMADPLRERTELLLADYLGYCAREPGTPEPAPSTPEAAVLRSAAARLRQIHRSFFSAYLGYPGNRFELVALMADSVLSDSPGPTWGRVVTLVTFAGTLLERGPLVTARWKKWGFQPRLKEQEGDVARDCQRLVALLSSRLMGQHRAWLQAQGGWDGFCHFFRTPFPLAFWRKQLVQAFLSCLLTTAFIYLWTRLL

Structure (SMILES) | displacement [%]
Cc1cccc(NC(=O)c2c(C)c(-c3ccccc3)nc3ccccc23)c1C | -4.7
c1cncc(CN2CCN(Cc3cccc4ccccc34)CC2)c1 | 6.3
COc1cc(/C=C2\NC(=S)NC2=O)ccc1OCc1c(C)no[n+]1[O-] | -3.6
Cc1cc2nc(-c3cc(NC(=O)c4cccc([N+](=O)[O-])c4)ccc3Cl)oc2cc1C | -2.7
COc1cc(C2Nc3ccccc3NC3=C2C(=O)CC(c2ccccc2)C3)cc(OC)c1O (centres undefined) | 5.9
COC(=O)C1=C(C)N(CCc2ccc(OC)c(OC)c2)C(=O)C1 | 12.1
CCOc1ccc(NS(=O)(=O)c2cc(-c3nnnn3C)ccc2OC)cc1 | 7.8
O=C(CN(c1ccc(F)cc1)S(=O)(=O)c1ccccc1)N1CCOCC1 | -2.8
CCOC(=O)/C(C#N)=C/c1ccc(N2CCN(CCN3C(=O)c4cccc5cccc(c45)C3=O)CC2)cc1 | -8.7
Cc1ccc(-c2nc3cc(NC(=O)c4ccccc4I)ccc3o2)c(C)c1 | 4.5
COc1ccc(/C=C2\NC(=S)N(c3ccccc3)C2=O)cc1OC | 41.7
CCC(=O)Nc1sc2c(c1C(=O)Nc1ccc(OC)cc1)CCCCC2 | 8.5
O=C(COc1ccc([N+](=O)[O-])cc1)Nc1cc(C(F)(F)F)cc(C(F)(F)F)c1 | -2.6
CC(C)c1ccc(C=NCCCO)cc1 | -6.7
CSc1nc(=O)n(C)c(C)c1C(C)=O | 17.9
Cc1ccc(S(=O)(=O)N=C2C=C(Cl)C(=O)C(Br)=C2)cc1 | 19.3
COc1ccccc1C(=O)Nc1ccc(F)c(Cl)c1 | 4.1
Cc1ccc(Cl)cc1NC(=O)CSc1nnc(N)s1 | -13
O=C(NCCCc1ccccc1)C(Sc1ccccc1)c1ccccc1 (centres undefined) | -24.9
O=C(CC1(O)C(=O)Nc2ccccc21)c1ccco1 (centres undefined) | 13.7
Cc1cc(Nc2ccccc2)n(C(=O)c2ccc([N+](=O)[O-])cc2)n1 | 10.8
CCOc1ccccc1/C=C(/NC(=O)c1ccccc1)C(=O)N1CCCCC1 | 17.6

Structure (SMILES) | displacement [%]
COc1ccc(-c2cc(C(=O)N3CCN(Cc4ccccc4)CC3)c3ccccc3n2)cc1OC | -8.5
NC1=NC2(CCCC2)N=C(Nc2ccc(F)cc2F)N1 | -4.1
CCOc1ccc(-c2cnc(=S)[nH]c2N)cc1 | 5.2
COC(=O)C(C)N(C(=O)c1ccc(C(=O)c2ccccc2)cc1)c1c(C)cccc1C (centres undefined) | 10.7
COc1ccccc1N1CCN(/N=C\c2c(C)nn(-c3ccccc3)c2C)CC1 | 6.3
CCCC1=NN2C(=N)/C(=C/c3ccccc3C)C(=O)N=C2S1 | 32.9
Cc1cccc(N2CCN(S(=O)(=O)c3ccccc3[N+](=O)[O-])CC2)c1C | -7.2
O=C(O)CCCCCN1C(=O)C(O)=C(C(=O)/C=C/c2ccccc2)C1c1ccccc1[N+](=O)[O-] (centres undefined) | 9.2
COc1ccc2c(c1)C(C)=CC(C)(C)N2C(=O)NC1CCCCC1 | -0.3
COc1ccc(NC(=S)NC(NC(=O)Cc2ccccc2)C(Cl)(Cl)Cl)cc1OC (centres undefined) | 9.8
COc1ccccc1N1C(=O)c2ccc(OC)c(OC)c2C1=O | -4.1
C/C(=N\NC(=O)COc1ccccc1[N+](=O)[O-])c1ccc(Br)cc1 | 10.5
O=C1c2ccccc2-c2c(NC3CCCCC3)c(=O)[nH]c3cccc1c23 | 150
CCOC(=O)Cc1csc(NC(=O)c2ccc([N+](=O)[O-])o2)n1 | -4.1
CC(C)Oc1ccc2c3c(c(=O)oc2c1)CCC3 | -0.7
CC(C)c1ccccc1NC(=O)c1sc2ccccc2c1Cl | 0.9
CC1=NNC(=O)C1CC(=O)N/N=C/c1ccc(Cl)cc1Cl (centres undefined) | 1.3
CCOC(=O)c1c(NC(=O)C2C(C=C(Cl)Cl)C2(C)C)sc2c1CCCC2 (centres undefined) | 6.3
CCc1sc(-c2c(C#N)c(N)nc3c2CCCC3)cc1Br | 0.7
Cc1ccc(S(=O)(=O)N=Nc2c(O)[nH]c3ccccc23)cc1C | 11.7
Cc1ccc(N2C(=O)NC(=O)/C(=C/c3cc(C)n(-c4ccccc4)c3C)C2=O)cc1 | 21.7
CCCOC(=O)c1ccc(NC(=O)/C=C\C(=O)O)cc1 | 18.2

Structure (SMILES) | displacement [%]
C=CCNC(=O)c1cnn(-c2ccccc2)c1NC(=O)c1cccc(F)c1 | -5.7
COc1cccc(/C=C2\C(=O)NC(=O)N(c3ccc(Br)c(C)c3)C2=O)c1OC | -10
O=C(Nc1ccc(NC(=O)c2cccs2)cc1)c1ccccc1 | -0.6
O=S(=O)(c1ccccc1)N1CCN(CCCc2ccccc2)CC1 | 0.3
CC1=C(C(=O)N2CCOCC2)C(c2cccs2)NC(=O)N1 (centres undefined) | 1.8
O=C(Nc1ccccc1O)c1cccc2c(Br)cccc12 | 1.4
O=Cc1ccc(-c2ccc(OC(F)(F)F)cc2)o1 | -7
CCOC(=O)C1=C(C)N=c2s/c(=C\c3ccc4c(c3)OCO4)c(=O)n2C1c1ccc(C)cc1 (centres undefined) | -7.1
CN1CCN(Cn2c(O)c(N=NC(=O)c3ccccc3)c3cc(Br)ccc32)CC1 | -6.3
Cc1ccc(SCCNC(=O)CN(c2ccccc2C)S(C)(=O)=O)cc1 | 0.5
Cc1ccccc1N1CCN(C(=S)c2ccc(OCc3ccccc3)cc2)CC1 | 18.1
O=C(c1cccc2ccccc12)N1CCN(c2nc3ccc([N+](=O)[O-])cc3s2)CC1 | 28.9
C=CCOc1ccc(/C=C2\SC(=S)N(CC(=O)O)C2=O)cc1OC | 10
COC(=O)C1=C(C)NC2=C(C(=O)CC(c3cccs3)C2)C1c1ccsc1 (centres undefined) | 4.7
COc1ccc(C(=O)N/C(=C/c2ccc(-c3ccc(Cl)cc3)o2)C(=O)N(C)C)cc1 | 8.9
CS(=O)(=O)N1CCN(Cc2ccc([N+](=O)[O-])cc2)CC1 | 10.7
O=S(=O)(c1ccc(Cl)cc1)N1CCN(Cc2cccc3ccccc23)CC1 | -4.6
O=C(Nc1nc2ccc(Cl)cc2s1)C1CC1 | -9.6
S=C(c1ccc(-c2cccc(Cl)c2Cl)o1)N1CCN(c2ccccc2)CC1 | -4
O=C(Nc1ncc(S(=O)(=O)c2ccc([N+](=O)[O-])cc2)s1)c1ccccc1Cl | -0.6
COc1ccc(NC(=O)Nc2ccc(Oc3ccccc3)cc2)cc1OC | -0.4
COC(=O)C1=C(C)NC2=C(C(=O)CC(c3ccccc3)C2)C1c1ccc(O)c([N+](=O)[O-])c1 (centres undefined) | 11.6

Structure (SMILES) | displacement [%]
COc1ccc(OCCCCN2CCC(C)CC2)cc1 | -1.2
O=C(OCCN1CCOCC1)c1ccc(Cl)cc1 | -3.3
c1cncc(-c2noc(COc3ccc4ccccc4c3)n2)c1 | 0.6
C=CCNC(=O)C1CC(=O)N(c2ccc(C)cc2)C1 (centres undefined) | -7.4
Cc1cccc(N2CCN(C(=O)C(Cl)(Cl)Cl)CC2)c1C | 9.4
O=C(c1ccc(Cl)cc1Cl)N1CCN(c2ccccn2)CC1 | 2.2
CN1CCc2c(sc3nc(=S)[nH]c(N)c23)C1 | 37.3
C=C(Br)CSc1nc2ccccc2[nH]1 | 20.2
O=C(/C=C/c1ccco1)N1CCN(c2ccccc2)CC1 | -3.2
O=c1c2c(nc3cc(-c4cccc(Cl)c4)[nH]n13)CCCC2 | -4.2
O=C(N/N=C\C=C\c1ccc2c(c1)OCO2)c1ccc(F)cc1 | -12.6
COc1cc(C(O)c2nccn2C)ccc1OCc1ccccc1 (centres undefined) | 11
COc1cc(/C=C/C(=O)c2c(-c3ccccc3)c3cc(Cl)ccc3[nH]c2=O)cc(OC)c1OC | 11.5
Oc1ccccc1N=Cc1ccc(Br)cc1 | -1.9
Cc1ccccc1NC(=O)C(=O)NCc1ccc(Cl)cc1 | 2.4
Cc1ccc([N+](=O)[O-])cc1NC(=O)COc1ccc(Cl)cc1Cl | 3.8
CCc1cc2c(C)cc(=O)oc2cc1OC(=O)c1ccccc1 | -3.3
COc1ccc(OC)c(C2C(C(C)=O)=C(O)C(=O)N2CCN(C)C)c1 (centres undefined) | -10.4
COc1c(Cl)cc(Cl)cc1/C=C1\SC(NC(C)=O)=NC1=O | 74.7
Cc1ccc(Oc2nc3ccccc3n3cnnc23)cc1 | -8.2
O=C(c1cccc(F)c1)N1CCN(C2CCCCC2)CC1 | -12
Fc1cccc(-c2nnc(SCc3ccccc3Cl)n2-c2ccccc2)c1 | -10.7

Structure (SMILES) | displacement [%]
CC(C)(C)C1CCc2c(sc3ncn4c(=S)[nH]nc4c23)C1 (centres undefined) | -5.7
CN1c2ccccc2N(C)C1(C)c1cccc2ccccc12 | 23.9
CCN=C1SC(CC(=O)Nc2ccc(N3CCOCC3)cc2)C(=O)N1CC (centres undefined) | -2.3
Cc1ccc(N2NC(=O)/C(=C/c3ccc(C)c([N+](=O)[O-])c3)C2=O)cc1Cl | 13.1
O=S(=O)(CCc1ccccc1)/N=C/c1cc(Br)ccc1O | 4.5
Cc1ccc2c(c1)C(=Cc1nc3ccccc3c(=O)n1-c1ccccc1[N+](=O)[O-])C(=O)N2 | -15.3
COc1ccc(N(CC(=O)NCc2ccccc2OC)S(=O)(=O)c2ccccc2)c(OC)c1 | -4.1
CCc1c(O)nc(SCC(=O)N2CCOCC2)n(-c2ccccc2)c1=O | -4.1
C(#CCn1c2ccccc2c2ccccc21)CN1CCOCC1 | 7.8
Cc1ccc(N2C(=O)CC(N3CCN(c4ccccc4F)CC3)C2=O)cc1 (centres undefined) | 5.2
O=C(CN(c1ccc(F)cc1)S(=O)(=O)c1ccccc1)Nc1ccccc1 | 0.5
COc1ccccc1CC(=O)Nc1cccc(C)c1C | 2.7
CCOC(=O)C1=C(C(=O)OCC)SC(=C2C(=S)C(C)(C)N(C(=O)CN3C(=O)CCC3=O)c3ccc(C)cc32)S1 | -0.7
CCOc1cc(/C=C2/NC(=S)NC2=O)ccc1OCc1ccc(Cl)cc1 | 12.7
O=C(c1ccc2c(c1)OCO2)N1CCN(CCN2C(=O)c3cccc4cccc(c34)C2=O)CC1 | -2.5
O=C(COc1ccc2cc(Br)ccc2c1Br)NCc1ccccc1 | -0.9
COc1ccc(CNC(=O)c2cccc(F)c2)cc1 | 9.6
CCOC(=O)CSc1nc2sc3c(c2c(=O)n1-c1ccccc1)CCN(C)C3 | -7.2
COC(=O)C1(C(=O)OC)C(C)C1(C(=O)OC)C(=O)OC | 18.4
O=C(CCN1C(=O)/C(=C/c2ccccc2)SC1=S)Nc1cccc(Cl)c1 | 6
CCOC(=O)c1c(NC(=O)C(Cc2ccccc2)N2C(=O)c3ccccc3C2=O)sc2c1CCCC2 (centres undefined) | 11.8
